Test results published in PMC4860839, “Structures of the APC–ARM domain in complexes with discrete Amer1/WTX fragments reveal that it uses a consensus mode to recognize its binding partners” (Cell Discovery, 2015).
These are yes or no findings as the source states them, for the method shown. For part of these data: In cells and extracts the contact can be indirect. Some entries that bind do so weakly or less than the wild type. For part of these data: Sequences can lack the tags named with a protein.

The chains behind the UniProt entries cited, without tags or fusion partners. Where a name states a change or a piece, a line headed by the entry shows the natural chain unless it says otherwise. A line that says so, or that is headed by a name, gives the form on record, which may keep a tag or linker. Residues count along the entry.
UniProt P25054: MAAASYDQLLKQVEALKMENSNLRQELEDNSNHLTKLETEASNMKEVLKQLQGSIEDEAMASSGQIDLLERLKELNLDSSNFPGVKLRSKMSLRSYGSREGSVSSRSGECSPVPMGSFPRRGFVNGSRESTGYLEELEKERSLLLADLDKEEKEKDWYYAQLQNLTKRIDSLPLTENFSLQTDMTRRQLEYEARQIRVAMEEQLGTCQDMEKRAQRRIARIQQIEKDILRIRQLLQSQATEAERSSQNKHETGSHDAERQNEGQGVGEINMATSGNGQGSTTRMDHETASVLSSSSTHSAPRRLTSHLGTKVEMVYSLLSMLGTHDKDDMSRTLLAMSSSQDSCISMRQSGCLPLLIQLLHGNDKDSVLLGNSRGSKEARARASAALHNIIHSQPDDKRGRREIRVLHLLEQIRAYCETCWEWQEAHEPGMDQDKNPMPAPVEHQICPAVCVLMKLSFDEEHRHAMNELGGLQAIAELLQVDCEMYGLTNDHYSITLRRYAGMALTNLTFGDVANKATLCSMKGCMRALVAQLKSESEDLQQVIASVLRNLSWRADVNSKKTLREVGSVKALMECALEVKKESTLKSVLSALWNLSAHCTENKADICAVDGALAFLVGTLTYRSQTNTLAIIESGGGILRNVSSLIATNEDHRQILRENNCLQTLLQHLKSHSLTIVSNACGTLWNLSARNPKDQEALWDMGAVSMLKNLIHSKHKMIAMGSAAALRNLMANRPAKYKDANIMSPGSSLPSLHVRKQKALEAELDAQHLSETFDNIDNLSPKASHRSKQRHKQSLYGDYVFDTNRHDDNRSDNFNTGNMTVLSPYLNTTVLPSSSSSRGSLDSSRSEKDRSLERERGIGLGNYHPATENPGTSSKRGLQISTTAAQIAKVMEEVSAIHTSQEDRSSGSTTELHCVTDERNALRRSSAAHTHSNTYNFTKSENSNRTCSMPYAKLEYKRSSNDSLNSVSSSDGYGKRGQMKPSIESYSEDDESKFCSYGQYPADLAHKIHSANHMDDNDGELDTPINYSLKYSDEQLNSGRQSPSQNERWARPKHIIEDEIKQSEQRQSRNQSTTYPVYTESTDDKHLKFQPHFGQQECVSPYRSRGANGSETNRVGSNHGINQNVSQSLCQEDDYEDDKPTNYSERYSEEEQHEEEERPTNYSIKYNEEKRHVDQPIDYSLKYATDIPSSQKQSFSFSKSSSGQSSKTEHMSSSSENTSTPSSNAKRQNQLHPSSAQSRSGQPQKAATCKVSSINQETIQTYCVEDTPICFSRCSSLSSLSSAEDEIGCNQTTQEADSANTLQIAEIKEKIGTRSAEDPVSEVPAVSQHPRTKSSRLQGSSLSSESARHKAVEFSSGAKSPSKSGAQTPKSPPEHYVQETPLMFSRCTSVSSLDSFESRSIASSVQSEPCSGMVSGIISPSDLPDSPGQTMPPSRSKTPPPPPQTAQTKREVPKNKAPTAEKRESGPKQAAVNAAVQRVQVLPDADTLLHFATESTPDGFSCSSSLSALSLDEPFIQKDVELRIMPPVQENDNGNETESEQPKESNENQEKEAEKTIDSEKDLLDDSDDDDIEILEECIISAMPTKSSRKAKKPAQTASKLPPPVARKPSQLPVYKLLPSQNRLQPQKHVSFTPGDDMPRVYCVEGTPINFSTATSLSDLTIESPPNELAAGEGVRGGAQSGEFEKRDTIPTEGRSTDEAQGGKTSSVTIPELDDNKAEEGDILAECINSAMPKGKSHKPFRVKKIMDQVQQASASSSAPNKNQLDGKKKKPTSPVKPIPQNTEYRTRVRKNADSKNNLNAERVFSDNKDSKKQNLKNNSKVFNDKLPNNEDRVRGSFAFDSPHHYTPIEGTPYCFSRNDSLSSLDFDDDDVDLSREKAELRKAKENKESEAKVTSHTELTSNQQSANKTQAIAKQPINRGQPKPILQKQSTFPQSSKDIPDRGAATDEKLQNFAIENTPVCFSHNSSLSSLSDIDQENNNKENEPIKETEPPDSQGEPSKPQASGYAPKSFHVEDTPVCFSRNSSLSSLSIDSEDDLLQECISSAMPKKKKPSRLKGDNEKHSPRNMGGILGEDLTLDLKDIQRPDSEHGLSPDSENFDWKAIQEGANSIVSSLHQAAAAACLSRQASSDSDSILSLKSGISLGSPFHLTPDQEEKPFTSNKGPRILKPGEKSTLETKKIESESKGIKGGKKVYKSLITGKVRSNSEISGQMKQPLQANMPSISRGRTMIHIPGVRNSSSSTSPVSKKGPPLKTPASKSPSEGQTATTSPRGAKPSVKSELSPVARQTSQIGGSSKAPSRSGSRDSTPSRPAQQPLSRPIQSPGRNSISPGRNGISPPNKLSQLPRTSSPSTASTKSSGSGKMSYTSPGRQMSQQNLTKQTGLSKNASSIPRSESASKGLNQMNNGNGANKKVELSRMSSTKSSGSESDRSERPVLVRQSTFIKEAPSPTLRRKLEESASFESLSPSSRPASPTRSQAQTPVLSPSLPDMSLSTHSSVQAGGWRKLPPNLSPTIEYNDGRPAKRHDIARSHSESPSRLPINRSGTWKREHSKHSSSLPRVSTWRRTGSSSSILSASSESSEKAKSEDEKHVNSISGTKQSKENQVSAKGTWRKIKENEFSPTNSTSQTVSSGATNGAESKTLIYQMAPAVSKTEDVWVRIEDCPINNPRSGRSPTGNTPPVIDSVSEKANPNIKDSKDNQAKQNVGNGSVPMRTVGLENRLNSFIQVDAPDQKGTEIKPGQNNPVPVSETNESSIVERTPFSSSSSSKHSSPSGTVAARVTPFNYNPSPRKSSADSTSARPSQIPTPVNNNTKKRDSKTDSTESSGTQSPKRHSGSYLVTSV
pBTM-APC–ARM (residues 308–789) K516E (P25054, form named): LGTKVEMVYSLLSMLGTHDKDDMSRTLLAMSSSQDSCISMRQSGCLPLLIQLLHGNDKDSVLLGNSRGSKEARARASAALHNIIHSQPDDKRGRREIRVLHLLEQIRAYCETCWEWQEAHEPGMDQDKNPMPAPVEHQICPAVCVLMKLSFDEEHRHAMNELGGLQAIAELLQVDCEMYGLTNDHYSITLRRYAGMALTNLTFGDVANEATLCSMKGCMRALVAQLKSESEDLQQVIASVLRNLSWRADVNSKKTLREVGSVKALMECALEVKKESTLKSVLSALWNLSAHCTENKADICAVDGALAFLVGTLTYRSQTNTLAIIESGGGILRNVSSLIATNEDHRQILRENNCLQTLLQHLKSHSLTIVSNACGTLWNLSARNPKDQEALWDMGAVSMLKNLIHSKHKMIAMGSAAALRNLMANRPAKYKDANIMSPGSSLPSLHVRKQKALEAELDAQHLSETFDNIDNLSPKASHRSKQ
pBTM-APC–ARM (residues 308–789) R549E (P25054, form named): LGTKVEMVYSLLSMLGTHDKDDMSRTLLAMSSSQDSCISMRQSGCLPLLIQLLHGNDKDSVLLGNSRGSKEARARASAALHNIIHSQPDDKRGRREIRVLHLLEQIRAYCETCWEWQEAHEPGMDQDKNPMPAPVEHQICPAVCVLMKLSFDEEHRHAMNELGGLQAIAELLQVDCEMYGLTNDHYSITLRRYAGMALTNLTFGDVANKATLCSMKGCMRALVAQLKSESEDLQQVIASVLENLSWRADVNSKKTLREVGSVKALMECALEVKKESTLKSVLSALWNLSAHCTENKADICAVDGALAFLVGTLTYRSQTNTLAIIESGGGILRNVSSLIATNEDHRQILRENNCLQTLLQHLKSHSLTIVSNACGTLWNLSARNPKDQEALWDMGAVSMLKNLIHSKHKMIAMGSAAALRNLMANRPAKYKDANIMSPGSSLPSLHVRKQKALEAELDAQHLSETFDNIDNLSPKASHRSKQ

Columns and labels:
[1] = molecular target: pBTM-APC–ARM (residues 308–789), two-hybrid bait (human) (UniProt P25054); assay: two-hybrid; L40 yeast, APC–ARM in pBTM116 (bait), Amer1 sites in pVP16 (prey); β-galactosidase activity and growth on –His; 7 mM (A4) or 10 mM (A1, A2, A3) 3-aminotriazole
[2] = molecular target: pBTM-APC–ARM (residues 308–789) K516E (human) (UniProt P25054); assay: as above
[3] = molecular target: pBTM-APC–ARM (residues 308–789) R549E (human) (UniProt P25054); assay: as above
FL APC (human) = FL APC (human) (UniProt P25054); assay: co-IP; HEK293T cells transiently transfected; immunoprecipitation with anti-GFP or anti-FLAG M2 beads, western blot

Row | binding [1] | binding [2] | binding [3] | binding (FL APC (human)) | Binder
1 | binds | no binding | no binding |  | Amer1-A2 (murine, residues 388–551), two-hybrid prey (domain or fragment, UniProt Q7TS75 388-551) EEEEEEEEEEEEEEEEEEEEEELLEDEEEVKDGEENDDLEYLWASAQIYPRFNMNLGYHTAISPSHQGYMLLDPVQSYPNLGLGELLTPQSDQQESAPNSDEGYYDSTTPGFEDDSGEALGLAHRDCLPRDSYSGDALYEFYEPDDSLEHSPPGDDCLYDLRGR
2 |  |  |  | binds | Flag-tagged Amer1 (residues 2–700) (domain or fragment, UniProt Q5JTC6 2-700) ETQKDEAAQAKGAAASGSTREQTAEKGAKNKAAEATEGPTSEPSSSGPGRLKKTAMKLFGGKKGICTLPSFFGGGRSKGSGKGSSKKGLSKSKTHDGLSEAAHGPEDVVSEGTGFSLPLPELPCQFPSSQSAHGALETGSRCKTSVAGATEKAVAEKFPSMPKPKKGLKGFFSSIRRHRKSKVTGAEQSEPGAKGPERVRARPHEHVSSAPQVPCFEETFQAPRKENANPQDAPGPKVSPTPEPSPPATEKMACKDPEKPMEACASAHVQPKPAPEASSLEEPHSPETGEKVVAGEVNPPNGPVGDPLSLLFGDVTSLKSFDSLTGCGDIIAEQDMDSMTDSMASGGQRANRDGTKRSSCLVTYQGGGEEMALPDDDDEEEEEEEEVELEEEEEEVKEEEEDDDLEYLWETAQMYPRPNMNLGYHPTTSPGHHGYMLLDPVRSYPGLAPGELLTPQSDQQESAPNSDEGYYDSTTPGFEDDSGEALGLVRRDCLPRDSYSGDALYEFYEPDDSLENSPPGDDCLYDLHGRSSEMFDPFLNFEPFLSSRPPGAMETEEERLVTIQKQLLYWELRREQLEAQEARAREAHAREAHAREAYTREAYGREAYAREAHTWEAHGREARTREAQAREVRCRETQVRETQARQEKPVLEYQMRPLGPSVMGLAAGVSGTSQISHRGITSAFPTTASSEPDWRDFRP
3 |  |  |  | binds | Flag-tagged Amer1 (2–700) D330K/D503K double mutant (domain or fragment, UniProt Q5JTC6 2-700) ETQKDEAAQAKGAAASGSTREQTAEKGAKNKAAEATEGPTSEPSSSGPGRLKKTAMKLFGGKKGICTLPSFFGGGRSKGSGKGSSKKGLSKSKTHDGLSEAAHGPEDVVSEGTGFSLPLPELPCQFPSSQSAHGALETGSRCKTSVAGATEKAVAEKFPSMPKPKKGLKGFFSSIRRHRKSKVTGAEQSEPGAKGPERVRARPHEHVSSAPQVPCFEETFQAPRKENANPQDAPGPKVSPTPEPSPPATEKMACKDPEKPMEACASAHVQPKPAPEASSLEEPHSPETGEKVVAGEVNPPNGPVGDPLSLLFGDVTSLKSFDSLTGCGKIIAEQDMDSMTDSMASGGQRANRDGTKRSSCLVTYQGGGEEMALPDDDDEEEEEEEEVELEEEEEEVKEEEEDDDLEYLWETAQMYPRPNMNLGYHPTTSPGHHGYMLLDPVRSYPGLAPGELLTPQSDQQESAPNSDEGYYDSTTPGFEDDSGEALGLVRRDCLPRDSYSGKALYEFYEPDDSLENSPPGDDCLYDLHGRSSEMFDPFLNFEPFLSSRPPGAMETEEERLVTIQKQLLYWELRREQLEAQEARAREAHAREAHAREAYTREAYGREAYAREAHTWEAHGREARTREAQAREVRCRETQVRETQARQEKPVLEYQMRPLGPSVMGLAAGVSGTSQISHRGITSAFPTTASSEPDWRDFRP
4 |  |  |  | no binding | Flag-tagged Amer1 (2-700, D330K/D503K/E370K) triple mutant (domain or fragment, UniProt Q5JTC6 2-700) ETQKDEAAQAKGAAASGSTREQTAEKGAKNKAAEATEGPTSEPSSSGPGRLKKTAMKLFGGKKGICTLPSFFGGGRSKGSGKGSSKKGLSKSKTHDGLSEAAHGPEDVVSEGTGFSLPLPELPCQFPSSQSAHGALETGSRCKTSVAGATEKAVAEKFPSMPKPKKGLKGFFSSIRRHRKSKVTGAEQSEPGAKGPERVRARPHEHVSSAPQVPCFEETFQAPRKENANPQDAPGPKVSPTPEPSPPATEKMACKDPEKPMEACASAHVQPKPAPEASSLEEPHSPETGEKVVAGEVNPPNGPVGDPLSLLFGDVTSLKSFDSLTGCGKIIAEQDMDSMTDSMASGGQRANRDGTKRSSCLVTYQGGGKEMALPDDDDEEEEEEEEVELEEEEEEVKEEEEDDDLEYLWETAQMYPRPNMNLGYHPTTSPGHHGYMLLDPVRSYPGLAPGELLTPQSDQQESAPNSDEGYYDSTTPGFEDDSGEALGLVRRDCLPRDSYSGKALYEFYEPDDSLENSPPGDDCLYDLHGRSSEMFDPFLNFEPFLSSRPPGAMETEEERLVTIQKQLLYWELRREQLEAQEARAREAHAREAHAREAYTREAYGREAYAREAHTWEAHGREARTREAQAREVRCRETQVRETQARQEKPVLEYQMRPLGPSVMGLAAGVSGTSQISHRGITSAFPTTASSEPDWRDFRP
5 | binds |  |  |  | GST-Amer1 (380–531), full A2 (domain or fragment, human, UniProt Q5JTC6 380-531, looked up, the methods print full A2: 400–531; also called full Amer1-A2; not shown: GST, N-terminal, kept) EEEEEEEEVELEEEEEEVKEEEEDDDLEYLWETAQMYPRPNMNLGYHPTTSPGHHGYMLLDPVRSYPGLAPGELLTPQSDQQESAPNSDEGYYDSTTPGFEDDSGEALGLVRRDCLPRDSYSGDALYEFYEPDDSLENSPPGDDCLYDLHGR
6 | binds | no binding | no binding |  | Amer1-A4 (human, residues 337–455), two-hybrid prey (domain or fragment, UniProt Q5JTC6 337-455) MDSMTDSMASGGQRANRDGTKRSSCLVTYQGGGEEMALPDDDDEEEEEEEEVELEEEEEEVKEEEEDDDLEYLWETAQMYPRPNMNLGYHPTTSPGHHGYMLLDPVRSYPGLAPGELLT
7 | no binding |  |  |  | hAmer1-A4 (residues 337–455) E370K, two-hybrid prey (domain or fragment, UniProt Q5JTC6 337-455) MDSMTDSMASGGQRANRDGTKRSSCLVTYQGGGKEMALPDDDDEEEEEEEEVELEEEEEEVKEEEEDDDLEYLWETAQMYPRPNMNLGYHPTTSPGHHGYMLLDPVRSYPGLAPGELLT
8 | no binding |  |  |  | hAmer1-A4 (residues 337–455) with residues 370–373 deleted, two-hybrid prey (domain or fragment, UniProt Q5JTC6) MDSMTDSMASGGQRANRDGTKRSSCLVTYQGGGLPDDDDEEEEEEEEVELEEEEEEVKEEEEDDDLEYLWETAQMYPRPNMNLGYHPTTSPGHHGYMLLDPVRSYPGLAPGELLT
9 | binds |  |  |  | Amer1-A1 (human, residues 280–369), two-hybrid prey (domain or fragment, UniProt Q5JTC6 280-369) SLEEPHSPETGEKVVAGEVNPPNGPVGDPLSLLFGDVTSLKSFDSLTGCGDIIAEQDMDSMTDSMASGGQRANRDGTKRSSCLVTYQGGG
10 | no binding |  |  |  | hAmer1-A1 (residues 280–369) D330K, two-hybrid prey (domain or fragment, UniProt Q5JTC6 280-369) SLEEPHSPETGEKVVAGEVNPPNGPVGDPLSLLFGDVTSLKSFDSLTGCGKIIAEQDMDSMTDSMASGGQRANRDGTKRSSCLVTYQGGG
11 | no binding |  |  |  | hAmer1-A1 (residues 280–369) T326R, two-hybrid prey (domain or fragment, UniProt Q5JTC6 280-369) SLEEPHSPETGEKVVAGEVNPPNGPVGDPLSLLFGDVTSLKSFDSLRGCGDIIAEQDMDSMTDSMASGGQRANRDGTKRSSCLVTYQGGG
12 | no binding |  |  |  | hAmer1-A1 (residues 280–369) T326A, two-hybrid prey (domain or fragment, UniProt Q5JTC6 280-369) SLEEPHSPETGEKVVAGEVNPPNGPVGDPLSLLFGDVTSLKSFDSLAGCGDIIAEQDMDSMTDSMASGGQRANRDGTKRSSCLVTYQGGG
13 | no binding |  |  |  | hAmer1-A1 (residues 280–369) D330A, two-hybrid prey (domain or fragment, UniProt Q5JTC6 280-369) SLEEPHSPETGEKVVAGEVNPPNGPVGDPLSLLFGDVTSLKSFDSLTGCGAIIAEQDMDSMTDSMASGGQRANRDGTKRSSCLVTYQGGG
14 | no binding |  |  |  | hAmer1-A1 (residues 280–369) I332D, two-hybrid prey (domain or fragment, UniProt Q5JTC6 280-369) SLEEPHSPETGEKVVAGEVNPPNGPVGDPLSLLFGDVTSLKSFDSLTGCGDIDAEQDMDSMTDSMASGGQRANRDGTKRSSCLVTYQGGG
15 | binds | no binding | no binding |  | Amer1-A1 (murine, residues 279–367), two-hybrid prey (domain or fragment, UniProt Q7TS75 279-367) SLEEPHTSETEGKVVAGEVNPPNGPVGDQLSLLFGDVTSLKSFDSLTGCGDIIAEQDMDSMTDSMASGGQRANRDGTKRSSCLVTYQGG
